Biological target: GST-IRβ-C (cytoplasmic domain of IRβ, GST-IR residues 1011-1382) (UniProt P06213 in part)
Experiment: pull-down

Chain of UniProt P06213 (P06213 1011-1382): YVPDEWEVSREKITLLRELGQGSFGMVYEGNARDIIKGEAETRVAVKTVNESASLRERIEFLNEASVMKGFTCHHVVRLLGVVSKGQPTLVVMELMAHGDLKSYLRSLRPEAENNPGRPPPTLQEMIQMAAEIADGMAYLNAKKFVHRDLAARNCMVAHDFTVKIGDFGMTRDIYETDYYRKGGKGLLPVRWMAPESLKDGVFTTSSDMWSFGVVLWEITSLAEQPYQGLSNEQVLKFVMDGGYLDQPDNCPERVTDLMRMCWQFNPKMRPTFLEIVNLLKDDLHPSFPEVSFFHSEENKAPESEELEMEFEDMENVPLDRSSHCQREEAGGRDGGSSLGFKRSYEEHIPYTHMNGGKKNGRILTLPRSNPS

B1: MAD2 WT (purified recombinant) (natural protein)
chain: not shown
- binding result: binds
